Measured values: patent US9873709B2 (priority 2013, dated 2018)

Biological target: isolated recombinant JAK1 kinase domain (Homo sapiens (Human), UniProt P23458)
Details: read-out: JAK1 Ki

Compound	Ki
CN(Cc1ccc2ncccc2c1)C(=O)c1ccc(Nc2nc3c(N4CCC(O)(c5ccc(Cl)cc5)CC4)cccn3n2)cc1 [Example 1-169, 4-[[8-[4-(4-chlorophenyl)-4-hydroxy-1-piperidyl]-[1,2,4]triazolo[1,5-a]pyridin-2-yl]amino]-N-methyl-N-(6-quinolylmethyl) benzamide]	6.7 nM

Same assay, conditions: read-out: JAK1 Ki; isolated recombinant JAK1 kinase domain, 25 μM ATP

Compound	Ki
O=C(c1ccc(Nc2nc3c(N4CCC(O)(c5ccc(Cl)cc5)CC4)cccn3n2)cc1)N1CCC(Cc2cccnc2)C1 (centres unmarked) [Example 1-155, [4-[[8-[4-(4-chlorophenyl)-4-hydroxy-1-piperidyl]-[1,2,4]triazolo[1,5-a]pyridin-2-yl]amino]phenyl]-[3-(3-pyridylmethyl)pyrrolidin-1-yl]methanone]	3.2 nM
O=C(c1ccc(Nc2nc3c(N4CCC(O)(c5ccc(Cl)cc5)CC4)cccn3n2)cc1)N1CCC(Cc2ccccn2)CC1 [Example 1-158, [4-[[8-[4-(4-chlorophenyl)-4-hydroxy-1-piperidyl]-[1,2,4]triazolo[1,5-a]pyridin-2-yl]amino]phenyl]-[4-(2-pyridylmethyl)-1-piperidyl]methanone]	4.01 nM
Cc1cccc(CCNC(=O)c2ccc(Nc3nc4c(N5CCC(O)(c6ccc(Cl)cc6)CC5)cccn4n3)cc2)n1 [Example 1-159, 4-[[8-[4-(4-chlorophenyl)-4-hydroxy-1-piperidyl]-[1,2,4]triazolo[1,5-a]pyridin-2-yl]amino]-N-[2-(6-methyl-2-pyridyl)ethyl]benzamide]	4.82 nM
O=C(NCCc1ccncc1)c1ccc(Nc2nc3c(N4CCC(O)(c5ccc(Cl)cc5)CC4)cccn3n2)cc1 [Example 1-161, 4-[[8-[4-(4-chlorophenyl)-4-hydroxy-1-piperidyl]-[1,2,4]triazolo[1,5-a]pyridin-2-yl]amino]-N-[2-(4-pyridyl)ethyl]benzamide]	1.99 nM
O=C(NCCc1ccccn1)c1ccc(Nc2nc3c(N4CCC(O)(c5ccc(Cl)cc5)CC4)cccn3n2)cc1 [Example 1-162, 4-[[8-[4-(4-chlorophenyl)-4-hydroxy-1-piperidyl]-[1,2,4]triazolo[1,5-a]pyridin-2-yl]amino]-N-[2-(2-pyridyl)ethyl]benzamide]	2.91 nM
CN(C(=O)c1ccc(Nc2nc3c(N4CCC(O)(c5ccc(Cl)cc5)CC4)cccn3n2)cc1)C1CCN(Cc2ccccc2)C1 (centres unmarked) [Example 1-171, N-(1-benzylpyrrolidin-3-yl)-4-[[8-[4-(4-chlorophenyl)-4-hydroxy-1-piperidyl]-[1,2,4]triazolo[1,5-a]pyridin-2-yl]amino]-N-methyl-benzamide]	14.3 nM
O=C(NCCN1CCCCC1)c1ccc(Nc2nc3c(N4CCC(O)(c5ccc(Cl)cc5)CC4)cccn3n2)cc1 [Example 1-173, 4-[[8-[4-(4-chlorophenyl)-4-hydroxy-1-piperidyl]-[1,2,4]triazolo[1,5-a]pyridin-2-yl]amino]-N-[2-(1-piperidyl)ethyl]benzamide]	1.95 nM
O=C(NCC1CCCN1)c1ccc(Nc2nc3c(N4CCC(O)(c5ccc(Cl)cc5)CC4)cccn3n2)cc1 (centres unmarked) [Example 1-182, 4-[[8-[4-(4-chlorophenyl)-4-hydroxy-1-piperidyl]-[1,2,4]triazolo[1,5-a]pyridin-2-yl]amino]-N-(pyrrolidin-2-ylmethyl)benzamide]	2.59 nM
O=C(NCC1CCCNC1)c1ccc(Nc2nc3c(N4CCC(O)(c5ccc(Cl)cc5)CC4)cccn3n2)cc1 (centres unmarked) [Example 1-183, 4-[[8-[4-(4-chlorophenyl)-4-hydroxy-1-piperidyl]-[1,2,4]triazolo[1,5-a]pyridin-2-yl]amino]-N-(3-piperidylmethyl) benzamide]	1.77 nM
O=C(NCC1CCNCC1)c1ccc(Nc2nc3c(N4CCC(O)(c5ccc(Cl)cc5)CC4)cccn3n2)cc1 [Example 1-184, 4-[[8-[4-(4-chlorophenyl)-4-hydroxy-1-piperidyl]-[1,2,4]triazolo[1,5-a]pyridin-2-yl]amino]-N-(4-piperidylmethyl)]	1.15 nM
O=C(NCC1CCCCN1)c1ccc(Nc2nc3c(N4CCC(O)(c5ccc(Cl)cc5)CC4)cccn3n2)cc1 (centres unmarked) [Example 1-185]	2.18 nM
O=C(NCCN1CCNCC1)c1ccc(Nc2nc3c(N4CCC(O)(c5ccc(Cl)cc5)CC4)cccn3n2)cc1 [Example 1-187]	1.47 nM
O=C(NCC1CNCCO1)c1ccc(Nc2nc3c(N4CCC(O)(c5ccc(Cl)cc5)CC4)cccn3n2)cc1 (centres unmarked) [Example 1-188, 4-[[8-[4-(4-chlorophenyl)-4-hydroxy-1-piperidyl]-[1,2,4]triazolo[1,5-a]pyridin-2-yl]amino]-N-(morpholin-2-ylmethyl)benzamide]	1.35 nM

The remaining lines, values ahead:

Ki	Compound
6.51 nM	Cc1ccc(CC2CCN(C(=O)c3ccc(Nc4nc5c(N6CCC(O)(c7ccc(Cl)cc7)CC6)cccn5n4)cc3)C2)nc1 (centres unmarked) [Example 1-156, [4-[[8-[4-(4-chlorophenyl)-4-hydroxy-1-piperidyl]-[1,2,4]triazolo[1,5-a]pyridin-2-yl]amino]phenyl]-[3-[(5-methyl-2-pyridyl)methyl]pyrrolidin-1-yl]methanone]
3.7 nM	O=C(c1ccc(Nc2nc3c(N4CCC(O)(c5ccc(Cl)cc5)CC4)cccn3n2)cc1)N1CCC(Cc2ccccn2)C1 (centres unmarked) [Example 1-157, [4-[[8-[4-(4-chlorophenyl)-4-hydroxy-1-piperidyl]-[1,2,4]triazolo[1,5-a]pyridin-2-yl]amino]phenyl]-[3-(2-pyridylmethyl)pyrrolidin-1-yl]methanone]
2.57 nM	CNC(=O)C1CN(C(=O)c2ccc(Nc3nc4c(N5CCC(O)(c6ccc(Cl)cc6)CC5)cccn4n3)cc2)CCN1C (centres unmarked) [Example 1-163, 4-[4-[[8-[4-(4-chlorophenyl)-4-hydroxy-1-piperidyl]-[1,2,4]triazolo[1,5-a]pyridin-2-yl]amino]benzoyl]-N,1-dimethyl-piperazine-2-carboxamide]
0.8 nM	CN(C)C(=O)C1CN(C(=O)c2ccc(Nc3nc4c(N5CCC(O)(c6ccc(Cl)cc6)CC5)cccn4n3)cc2)C1 [Example 1-164, 1-[4-[[8-[4-(4-chlorophenyl)-4-hydroxy-1-piperidyl]-[1,2,4]triazolo[1,5-a]pyridin-2-yl]amino]benzoyl]-N,N-dimethyl-azetidine-3-carboxamide]
0.88 nM	CN1CCN(C(=O)C2CN(C(=O)c3ccc(Nc4nc5c(N6CCC(O)(c7ccc(Cl)cc7)CC6)cccn5n4)cc3)C2)CC1 [Example 1-165, [4-[[8-[4-(4-chlorophenyl)-4-hydroxy-1-piperidyl]-[1,2,4]triazolo[1,5-a]pyridin-2-yl]amino]phenyl]-[3-(4-methylpiperazine-1-carbonyl)azetidin-1-yl]methanone]
2.13 nM	CN(C)[C@H]1CCN(C(=O)c2ccc(Nc3nc4c(N5CCC(O)(c6ccc(Cl)cc6)CC5)cccn4n3)cc2)C1 [Example 1-166, [4-[[8-[4-(4-chlorophenyl)-4-hydroxy-1-piperidyl]-[1,2,4]triazolo[1,5-a]pyridin-2-yl]amino]phenyl]-[(3S)-3-(dimethylamino)pyrrolidin-1-yl]methanone]
1.79 nM	N#CCCN1CCN(C(=O)c2ccc(Nc3nc4c(N5CCC(O)(c6ccc(Cl)cc6)CC5)cccn4n3)cc2)CC1 [Example 1-167, 3-[4-[4-[[8-[4-(4-chlorophenyl)-4-hydroxy-1-piperidyl]-[1,2,4]triazolo[1,5-a]pyridin-2-yl]amino]benzoyl]piperazin-1-yl]propanenitrile]
2.75 nM	O=C(c1ccc(Nc2nc3c(N4CCC(O)(c5ccc(Cl)cc5)CC4)cccn3n2)cc1)N1CCN2CCCC2C1 (centres unmarked) [Example 1-168, 3,4,6,7,8,8a-hexahydro-1H-pyrrolo[1,2-a]pyrazin-2-yl-[4-[[8-[4-(4-chlorophenyl)-4-hydroxy-1-piperidyl]-[1,2,4]triazolo[1,5-a]pyridin-2-yl]amino]phenyl] methanone]
1.51 nM	CN1CCCC(CN(C)C(=O)c2ccc(Nc3nc4c(N5CCC(O)(c6ccc(Cl)cc6)CC5)cccn4n3)cc2)C1 (centres unmarked) [Example 1-170, 4-[[8-[4-(4-chlorophenyl)-4-hydroxy-1-piperidyl]-[1,2,4]triazolo[1,5-a]pyridin-2-yl]amino]-N-methyl-N-[(1-methyl-3-piperidyl)methyl] benzamide]
3.03 nM	O=C(c1ccc(Nc2nc3c(N4CCC(O)(c5ccc(Cl)cc5)CC4)cccn3n2)cc1)N1CCN(CC2CCCO2)CC1 (centres unmarked) [Example 1-172, [4-[[8-[4-(4-chlorophenyl)-4-hydroxy-1-piperidyl]-[1,2,4]triazolo[1,5-a]pyridin-2-yl]amino]phenyl]-[4-(tetrahydrofuran-2-ylmethyl)piperazin-1-yl]methanone]
2.41 nM	CNC(=O)C1CN(C(C)C)CCN1C(=O)c1ccc(Nc2nc3c(N4CCC(O)(c5ccc(Cl)cc5)CC4)cccn3n2)cc1 (centres unmarked) [Example 1-174, 1-[4-[[8-[4-(4-chlorophenyl)-4-hydroxy-1-piperidyl]-[1,2,4]triazolo[1,5-a]pyridin-2-yl]amino]benzoyl]-4-isopropyl-N-methyl-piperazine-2-carboxamide]
1.15 nM	CN1CCC(OC(=O)c2ccc(Nc3nc4c(N5CCC(O)(c6ccc(Cl)cc6)CC5)cccn4n3)cc2)CC1 [Example 1-178, (1-methyl-4-piperidyl) 4-[[8-[4-(4-chlorophenyl)-4-hydroxy-1-piperidyl]-[1,2,4]triazolo[1,5-a]pyridin-2-yl]amino]benzoate]
1.69 nM	O=C(NC1CCCNC1)c1ccc(Nc2nc3c(N4CCC(O)(c5ccc(Cl)cc5)CC4)cccn3n2)cc1 (centres unmarked) [Example 1-179, 4-[[8-[4-(4-chlorophenyl)-4-hydroxy-1-piperidyl]-[1,2,4]triazolo[1,5-a]pyridin-2-yl]amino]-N-(3-piperidyl)benzamide]
1.64 nM	O=C(NCC1CCNC1)c1ccc(Nc2nc3c(N4CCC(O)(c5ccc(Cl)cc5)CC4)cccn3n2)cc1 (centres unmarked) [Example 1-180, 4-[[8-[4-(4-chlorophenyl)-4-hydroxy-1-piperidyl]-[1,2,4]triazolo[1,5-a]pyridin-2-yl]amino]-N-(pyrrolidin-3-ylmethyl)benzamide]
1.95 nM	NCC1CCN(C(=O)c2ccc(Nc3nc4c(N5CCC(O)(c6ccc(Cl)cc6)CC5)cccn4n3)cc2)CC1 [Example 1-193, [4-(aminomethyl)-1-piperidyl]-[4-[[8-[4-(4-chlorophenyl)-4-hydroxy-1-piperidyl]-[1,2,4]triazolo[1,5-a]pyridin-2-yl]amino]phenyl] methanone]
